No constants are given. Whether binding was seen depends on the method and setting. In cells and extracts the contact can be indirect. Some entries that bind do so weakly or less than the wild type.
T1: TRIM24 (Tripartite motif-containing 24) (human (endogenous in MKN74 and NUGC3)) (UniProt O15164)
T1 sequence: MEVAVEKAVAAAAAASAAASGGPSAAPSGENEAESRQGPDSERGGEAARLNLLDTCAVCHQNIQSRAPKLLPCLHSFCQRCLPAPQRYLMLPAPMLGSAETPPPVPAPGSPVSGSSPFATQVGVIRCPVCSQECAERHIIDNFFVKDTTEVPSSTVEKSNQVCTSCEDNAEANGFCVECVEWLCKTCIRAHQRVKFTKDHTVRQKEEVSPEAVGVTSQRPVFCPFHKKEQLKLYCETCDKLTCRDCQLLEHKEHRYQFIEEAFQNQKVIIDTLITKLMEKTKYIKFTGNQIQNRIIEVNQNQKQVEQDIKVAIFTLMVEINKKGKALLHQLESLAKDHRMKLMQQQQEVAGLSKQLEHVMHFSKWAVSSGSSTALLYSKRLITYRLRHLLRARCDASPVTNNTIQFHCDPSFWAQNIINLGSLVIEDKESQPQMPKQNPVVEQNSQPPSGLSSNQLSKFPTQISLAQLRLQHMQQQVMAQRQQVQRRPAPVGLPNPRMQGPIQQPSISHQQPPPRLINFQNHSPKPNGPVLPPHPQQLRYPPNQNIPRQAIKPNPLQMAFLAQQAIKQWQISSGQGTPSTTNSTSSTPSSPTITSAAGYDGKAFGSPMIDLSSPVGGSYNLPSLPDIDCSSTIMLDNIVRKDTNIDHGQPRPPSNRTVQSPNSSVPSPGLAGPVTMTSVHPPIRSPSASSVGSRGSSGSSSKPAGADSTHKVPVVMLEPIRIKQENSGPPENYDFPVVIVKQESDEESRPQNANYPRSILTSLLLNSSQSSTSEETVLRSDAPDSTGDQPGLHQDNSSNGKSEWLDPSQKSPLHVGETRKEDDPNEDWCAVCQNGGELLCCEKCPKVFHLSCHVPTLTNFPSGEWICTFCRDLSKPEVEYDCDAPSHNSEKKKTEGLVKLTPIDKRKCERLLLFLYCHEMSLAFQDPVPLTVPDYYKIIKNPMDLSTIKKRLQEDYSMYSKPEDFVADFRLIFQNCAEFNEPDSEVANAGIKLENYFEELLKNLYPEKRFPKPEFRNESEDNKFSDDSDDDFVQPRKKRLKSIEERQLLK

Protein sequences, listed by entry. Tags and fused reporters are not part of them. Lines headed by an entry give the natural chain unless they say otherwise; changes in a name come on top.
UniProt Q9UHY1: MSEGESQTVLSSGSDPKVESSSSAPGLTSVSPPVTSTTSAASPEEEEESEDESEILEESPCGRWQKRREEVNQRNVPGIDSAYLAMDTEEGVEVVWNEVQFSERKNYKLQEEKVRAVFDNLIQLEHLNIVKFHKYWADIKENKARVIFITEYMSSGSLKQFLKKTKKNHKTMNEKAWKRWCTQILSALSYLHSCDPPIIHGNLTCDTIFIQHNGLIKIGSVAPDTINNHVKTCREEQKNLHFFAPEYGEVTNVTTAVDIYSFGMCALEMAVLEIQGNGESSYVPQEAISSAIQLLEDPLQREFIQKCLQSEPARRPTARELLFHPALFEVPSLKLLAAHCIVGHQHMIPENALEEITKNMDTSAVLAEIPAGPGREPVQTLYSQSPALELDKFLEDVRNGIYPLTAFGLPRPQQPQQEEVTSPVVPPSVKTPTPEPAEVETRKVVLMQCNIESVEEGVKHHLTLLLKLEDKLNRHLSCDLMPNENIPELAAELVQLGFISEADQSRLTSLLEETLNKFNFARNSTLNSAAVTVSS

T2: TRIM24 in HEK293T cells (human (HEK293T cells; endogenous or transfected not told)) (UniProt O15164)
T2 sequence: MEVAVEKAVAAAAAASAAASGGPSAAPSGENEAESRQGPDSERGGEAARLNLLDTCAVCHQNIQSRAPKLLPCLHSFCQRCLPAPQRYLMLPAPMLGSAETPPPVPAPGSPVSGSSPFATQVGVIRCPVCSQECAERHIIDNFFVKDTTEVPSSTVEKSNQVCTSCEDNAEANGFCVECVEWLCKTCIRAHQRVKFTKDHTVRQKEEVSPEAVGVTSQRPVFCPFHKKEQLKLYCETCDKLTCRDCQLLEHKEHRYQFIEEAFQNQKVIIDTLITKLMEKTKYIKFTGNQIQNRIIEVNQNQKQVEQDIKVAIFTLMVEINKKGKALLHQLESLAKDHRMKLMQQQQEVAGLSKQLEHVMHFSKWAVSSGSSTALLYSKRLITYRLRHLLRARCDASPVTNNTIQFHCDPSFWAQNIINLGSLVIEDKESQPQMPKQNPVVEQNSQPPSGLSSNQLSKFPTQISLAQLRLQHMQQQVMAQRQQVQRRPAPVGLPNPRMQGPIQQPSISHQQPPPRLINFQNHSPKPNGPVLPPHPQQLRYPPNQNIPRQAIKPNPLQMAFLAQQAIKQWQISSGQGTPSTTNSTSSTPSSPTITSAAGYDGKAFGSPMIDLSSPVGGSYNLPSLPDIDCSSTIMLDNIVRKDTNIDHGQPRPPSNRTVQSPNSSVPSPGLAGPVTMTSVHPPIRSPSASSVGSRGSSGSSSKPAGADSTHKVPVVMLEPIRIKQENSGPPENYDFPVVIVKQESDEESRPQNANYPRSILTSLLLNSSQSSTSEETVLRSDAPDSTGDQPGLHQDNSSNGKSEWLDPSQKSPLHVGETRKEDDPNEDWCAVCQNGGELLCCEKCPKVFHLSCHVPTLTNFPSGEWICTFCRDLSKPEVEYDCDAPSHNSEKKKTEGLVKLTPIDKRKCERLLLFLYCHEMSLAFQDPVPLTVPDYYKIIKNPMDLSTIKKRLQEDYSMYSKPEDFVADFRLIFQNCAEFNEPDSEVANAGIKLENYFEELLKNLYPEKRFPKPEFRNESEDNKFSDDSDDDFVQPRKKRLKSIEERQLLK


Experiments:
[1] = target: T1, TRIM24 (Tripartite motif-containing 24) (human (endogenous in MKN74 and NUGC3)); test: co-IP; endogenous proteins; MKN74 and NUGC3 cell lysates incubated overnight at 4 °C with anti-TRIM24 or anti-NRBP1 antibody or control IgG, then 2 h with protein A/G magnetic beads; immunoblot
[2] = target: T2, TRIM24 in HEK293T cells (human (HEK293T cells; endogenous or transfected not told)); test: co-IP; HEK293T cells transfected with His-NRBP1 full-length or truncation plasmids; immunoprecipitation and western blot; which partner was precipitated is not told; a CK1 inhibitor (D4476, 6 h) is said to weaken the interaction of TRIM24 and NRBP1 in HEK293T
[3] = target: NRBP1 (nuclear receptor binding protein 1) (human (endogenous in MKN74 and NUGC3)) (UniProt Q9UHY1); test: co-IP; endogenous proteins; MKN74 and NUGC3 cell lysates incubated overnight at 4 °C with anti-TRIM24 or anti-NRBP1 antibody or control IgG, then 2 h with protein A/G magnetic beads; immunoblot

Molecule | binding [2] | further results
NRBP1 (nuclear receptor binding protein 1) (from UniProt Q9UHY1 1-535) | – | binding [1]: binds
NRBP1(327-443) (from UniProt Q9UHY1 327-443) (domain or fragment) | binds | –
NRBP1(1-327) (from UniProt Q9UHY1 1-327) (domain or fragment) | no binding | –
full-length NRBP1 (His-NRBP1) (from UniProt Q9UHY1 1-535) | binds | –
NRBP1(1-67) (from UniProt Q9UHY1 1-67) (domain or fragment) | no binding | –
TRIM24 (Tripartite motif-containing 24) (protein, UniProt O15164 1-1050) MEVAVEKAVAAAAAASAAASGGPSAAPSGENEAESRQGPDSERGGEAARLNLLDTCAVCHQNIQSRAPKLLPCLHSFCQRCLPAPQRYLMLPAPMLGSAETPPPVPAPGSPVSGSSPFATQVGVIRCPVCSQECAERHIIDNFFVKDTTEVPSSTVEKSNQVCTSCEDNAEANGFCVECVEWLCKTCIRAHQRVKFTKDHTVRQKEEVSPEAVGVTSQRPVFCPFHKKEQLKLYCETCDKLTCRDCQLLEHKEHRYQFIEEAFQNQKVIIDTLITKLMEKTKYIKFTGNQIQNRIIEVNQNQKQVEQDIKVAIFTLMVEINKKGKALLHQLESLAKDHRMKLMQQQQEVAGLSKQLEHVMHFSKWAVSSGSSTALLYSKRLITYRLRHLLRARCDASPVTNNTIQFHCDPSFWAQNIINLGSLVIEDKESQPQMPKQNPVVEQNSQPPSGLSSNQLSKFPTQISLAQLRLQHMQQQVMAQRQQVQRRPAPVGLPNPRMQGPIQQPSISHQQPPPRLINFQNHSPKPNGPVLPPHPQQLRYPPNQNIPRQAIKPNPLQMAFLAQQAIKQWQISSGQGTPSTTNSTSSTPSSPTITSAAGYDGKAFGSPMIDLSSPVGGSYNLPSLPDIDCSSTIMLDNIVRKDTNIDHGQPRPPSNRTVQSPNSSVPSPGLAGPVTMTSVHPPIRSPSASSVGSRGSSGSSSKPAGADSTHKVPVVMLEPIRIKQENSGPPENYDFPVVIVKQESDEESRPQNANYPRSILTSLLLNSSQSSTSEETVLRSDAPDSTGDQPGLHQDNSSNGKSEWLDPSQKSPLHVGETRKEDDPNEDWCAVCQNGGELLCCEKCPKVFHLSCHVPTLTNFPSGEWICTFCRDLSKPEVEYDCDAPSHNSEKKKTEGLVKLTPIDKRKCERLLLFLYCHEMSLAFQDPVPLTVPDYYKIIKNPMDLSTIKKRLQEDYSMYSKPEDFVADFRLIFQNCAEFNEPDSEVANAGIKLENYFEELLKNLYPEKRFPKPEFRNESEDNKFSDDSDDDFVQPRKKRLKSIEERQLLK | – | binding [3]: binds
